From patent publication US12551573B2, “Compositions and methods for the targeting of PCSK9” (Scribe Therapeutics Inc., priority 2022, dated 2026)

Each molecule was assayed on HBEGF locus. Details: high-throughput screen of dXR repression of the HBEGF gene; abundance of each domain in the library before vs after diphtheria toxin selection; listed domains met p-value <0.01 and log2(fold change) >2.
Assay type: cell-based, human

| Molecule | Log2 (fold change) |
| --- | --- |
| DOMAIN_25844 (protein, listed as Ursus maritimus) MFSDVSVDFSQEEWECLDPGQRDLYRDVMLENYSNLLSMGLYIPKPQVISLLEQGKEPWMVGRELTRGLCSDLESMCETKL | 2.5635 |
| DOMAIN_26194 (protein, listed as Geotrypetes seraphini) QVPVTFEDIAVYFSQEEWEDLEEQQRELYKDVMKENYETLSSLGTGPPAVTPDIISHIERGEEPYIRFESGPEEREIGKSS | 2.8857 |
| DOMAIN_26010 (protein, listed as Geotrypetes seraphini) QMWVTFEDVAVSFSQEEWVYLDEGQKELYREVMKENYETVMSLAGEEFSRGKEKEGSIEQQSLKTEVHEMNKRVKLFKCSE | 2.1911 |
| DOMAIN_26233 (protein, listed as Colinus virginianus) SQEPVSFEEVAVYFSREEWALLDPAQRALYRDVMLETYECVASLAPLPAPKPMVISLLEEGEEPWIPDVGSPEAVAGDVSP | 3.6739 |
| DOMAIN_25857 (protein, listed as Balaenoptera acutorostrata) AHMSLSFRDVAIDLSQEEWECLDPVQRALYRDVMLENYSNLVSLGCSSPKPDVITLLEQEREPWTVMREGTRSWYTDLESK | 2.898 |
| DOMAIN_25564 (protein, listed as Muntiacus reevesi) RKRGSLTLEDVAVDFTWEEWQLLAPAQKALYQEVMLENYGNLVFVGYQASKPAALSRLERGEPWPVEDEVHSQLCPEMRKD | 3.4378 |
| DOMAIN_25726 (protein, Pteropus alecto) SQGLVTFEDVAVYFSLEEWQRLDAAQRDLYKEVMQENYGILVSLGYPIPKPDLIFRLEQGEEPWVPDSPSPEEGDIVTGVY | 2.8203 |
| DOMAIN_26211 (protein, listed as Pelodiscus sinensis) VVELLTFEEVAVYFSKEEWALLDPGQRALYRDVMQENYEAVSWLGFPVSKTDVISWVEREEEFWVPDPRSCEEGVIISNTH | 2.6058 |
| DOMAIN_25410 (protein, Puma concolor) SYGSLSFEDVTVGFSQEEWQHLDPAQRTLYRDVMLENYSHLVAVGCCVPKPDVIFRLEQGQQPWLIEEESLDQSCPEVCRV | 2.8699 |
| DOMAIN_25842 (protein, listed as Rhinolophus ferrumequinum) MLTFRDVFIEFSQEEWECLDPAQRKLYMDVMLESYRNLVSLGHSISKPDVITLLEQGKDPCMVVREETRRWCTGKNKSGRR | 3.0942 |
| DOMAIN_26265 (protein, listed as Geotrypetes seraphini) KLKPVKFQDVAVYFSEEEWQLLENQQKELYRSVMKENYENLTSLGFTTTKPNILKRMEQGRPLWVSTRRKVIKHSFREGEP | 2.5922 |
| DOMAIN_25628 (protein, listed as Rhinopithecus bieti) PLESVTFKDVAIDFTLEEWRLMDPTQRNLHKDVMLENYRNLVSLGLAVSKPDMISHLENGKGPWVTMRGISRIPYPDIEPK | 2.8332 |
| DOMAIN_25869 (protein, listed as Vombatus ursinus) FQESVTFKDVSVDFTQGEWGQLDPAQKNLYRDVMLENYRTLVSLGLQVFKPEVIYRLERGEAPWILEREISRGPCPDWPET | 2.3538 |
| DOMAIN_25649 (protein, Ursus arctos) AQESVMFSDVSIDFSQEEWECLNDDQRDLYRDVMLENYSHLVSMGHSVSKPDVISFLEQGKEPWLVDRELTRDHWPVLESR | 3.6884 |
| DOMAIN_25741 (protein, listed as Sapajus apella) FQESVAFEDVAVYFTQNQWGSLDPAQRALYSEVMLENYANVASLAFPFPKPALISHLEKGEAPWGPDPWDAEIPSGINQGG | 3.7244 |
| DOMAIN_25807 (protein, Puma concolor) AQAPLSFEDVAVSFSREEWRLLVPAQKDLYRDVMLENYRNLVSVGYQASEPDSLFRLEHGGPLWVVEGAAPRPPCPGEYVA | 3.6511 |
| DOMAIN_25443 (protein, listed as Muntiacus reevesi) QAGSDLFRDVAIVFSQEEWEQLAPTQRDLYRDVMLETYSNLVSLGLAVSKPDVIAFLEQGREPWTVEGVATGGLCPVLKSR | 3.2531 |
| DOMAIN_25534 (protein, listed as Ursus maritimus) LQGLLTFGDVAIEFSQEEWRCLSHTQRELYRDVMLENYGHLLFLGLTVSKPDLVSFLEQRKEPWDEKRNKTAGFDASRWE | 2.2698 |
| DOMAIN_25865 (protein, listed as Vombatus ursinus) FQDSVTFQDVAVTFTPEEWGRLAAPQKELYREVMLENFGHLACLGLALSKPDVICQLERGEAPWMPRGDVPQRPSAAPSGD | 3.1027 |
| DOMAIN_26236 (protein, listed as Pelodiscus sinensis) VSEPVTFEEVALYFSEEEWALLDAGQRALYRDVMKENYEAVRWLDNGRLNENHDKSLQNEGPEQMAPCGMMLGISEGHVSQ | 2.7094 |
| DOMAIN_25554 (protein, listed as Panthera pardus) SSQTLLTFRDVAIEFSQEEWGCLNHSQRELYRDVMLETYGHLLFLGLVSKPDLVIVLEQKKELWGVKRKETVASHPAVSSQ | 3.0101 |
| DOMAIN_25623 (protein, listed as Ursus maritimus) RPGAVSFADVAVYFSPEEWGCLRPAQRALYRDVMRETYGHLGALGFAGPKPALISWLERKKEVWSPEAEDPEAGARHPGSG | 3.4886 |
| DOMAIN_26335 (protein, listed as Colinus virginianus) EPVSFEEVAVYFSREEWALLDPAQRALYRDVMLETYECVASLAPLPGPKPMVISLLEEGEEPWIPDVGSPEAVAGDVSPGE | 4.0965 |

Same assay, conditions: high-throughput screen of dXR repression of the HBEGF gene; change in abundance of each domain in the library before and after diphtheria toxin selection

| Molecule | Log2 (fold change) |
| --- | --- |
| DOMAIN_966 (protein, Pan troglodytes) MTLLTFRDVAIEFSLEEWKCLDLAQQNLYRDVMLENYRNLFSVGLTVSKPGLITCLEQRKEPWNVKRQEAADGHPGWSAVV | 3.3535 |
| DOMAIN_893 (protein, listed as Pan paniscus) MAALFLSAPPQAEVTFEDVAVYLSREEWGRLGPAQRGLYRDVMLETYGNLVSLGVGPAGPKPGVISQLERGDEPWVLDVQG | 2.7511 |
| DOMAIN_888 (protein, listed as Pan paniscus) MDMAQEPVTFRDVAIYFSREEWACLEPSQRTLYRDVMLDNFSSVAALGFCSPRPDLVSRLEQWEEPWVEDRERPELQAVRR | 2.8951 |
